In article PMC11528044 (Nature Communications, 2024):

What was measured:
LdCYP51 [1] = molecular target: T1, LdCYP51 (Leishmania donovani, UniProt A0A3S7WRS7)
LdCYP5122A1 [2] = molecular target: T2, LdCYP5122A1 (Leishmania donovani, UniProt A0A3S7X0B6)
T2 sequence (A0A3S7X0B6 61-592): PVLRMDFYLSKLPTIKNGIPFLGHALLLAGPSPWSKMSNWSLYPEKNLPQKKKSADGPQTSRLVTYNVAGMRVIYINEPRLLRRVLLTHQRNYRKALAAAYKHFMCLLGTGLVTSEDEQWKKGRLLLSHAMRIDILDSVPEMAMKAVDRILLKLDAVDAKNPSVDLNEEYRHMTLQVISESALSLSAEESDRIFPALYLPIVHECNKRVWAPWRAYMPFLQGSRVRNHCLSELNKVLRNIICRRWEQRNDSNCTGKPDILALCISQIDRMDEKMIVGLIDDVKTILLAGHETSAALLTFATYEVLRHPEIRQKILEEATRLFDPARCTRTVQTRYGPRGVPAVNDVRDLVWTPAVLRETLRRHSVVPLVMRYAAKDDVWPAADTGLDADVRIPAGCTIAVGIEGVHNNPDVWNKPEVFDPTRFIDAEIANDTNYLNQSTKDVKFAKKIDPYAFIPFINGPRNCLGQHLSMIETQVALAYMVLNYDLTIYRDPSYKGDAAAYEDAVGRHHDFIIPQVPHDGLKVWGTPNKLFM

[3] = system: L. donovani LV82 promastigotes; assay: microbe, parasite or virus in culture; conditions: Leishmania donovani, 72 h, read-out: EC50 (L. donovani)
LdCYP51 [4] = molecular target: T1, LdCYP51; assay: biochemical
LdCYP5122A1 [5] = molecular target: T2, LdCYP5122A1; assay: biochemical

T1 sequence (A0A3S7WRS7 32-480): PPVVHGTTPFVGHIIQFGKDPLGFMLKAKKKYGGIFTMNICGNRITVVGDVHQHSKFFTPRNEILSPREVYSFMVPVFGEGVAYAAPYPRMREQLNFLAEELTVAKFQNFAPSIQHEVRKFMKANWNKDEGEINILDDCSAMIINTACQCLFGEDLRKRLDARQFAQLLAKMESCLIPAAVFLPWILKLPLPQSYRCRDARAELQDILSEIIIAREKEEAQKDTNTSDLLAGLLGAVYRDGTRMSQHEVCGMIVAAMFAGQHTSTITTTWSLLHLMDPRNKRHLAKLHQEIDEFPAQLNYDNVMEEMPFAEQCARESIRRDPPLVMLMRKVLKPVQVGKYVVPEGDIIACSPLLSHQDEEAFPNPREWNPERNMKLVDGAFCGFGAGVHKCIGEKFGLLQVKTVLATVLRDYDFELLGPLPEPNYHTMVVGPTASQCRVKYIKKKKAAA

SMILES	Selectivity for CYP51 over CYP5122A1 (LdCYP51 [1]) [fold]	SI (selectivity index) = IC50 against LdCYP5122A1/IC50 against LdCYP51 (LdCYP5122A1 [2])	EC50 [3] [µM]	IC50 (LdCYP51 [4]) [µM]	IC50 (LdCYP5122A1 [5]) [µM]
Clc1ccccc1C(c1ccccc1)(c1ccccc1)n1ccnc1 [Clotrimazole]	3.8	3.8	5 ± 0.1	–	–
Clc1ccc(COC(Cn2ccnc2)c2ccc(Cl)cc2Cl)cc1 (stereo not drawn) [Econazole]	–	10	9.4 ± 0.3	–	–
Clc1ccc(COC(Cn2ccnc2)c2ccc(Cl)cc2Cl)c(Cl)c1 (stereo not drawn) [Miconazole]	–	19	7.6 ± 0.7	–	–
Clc1ccc(CO/N=C(\Cn2ccnc2)c2ccc(Cl)cc2Cl)c(Cl)c1 [Oxiconazole]	–	20	3.9 ± 0.4	0.032 ± 0.002	0.62 ± 0.02
Clc1ccc(CSC(Cn2ccnc2)c2ccc(Cl)cc2Cl)cc1 (stereo not drawn) [Sulconazole]	–	5.9	7.4 ± 0.6	0.064 ± 0.003	0.38 ± 0.06
